The campaign covered roughly 340,000 compounds. About 12,000 (3.5%) were called active. The shares of active, inactive and inconclusive entries below differ from those in the screen. Calls follow the shape of the dose curve; as a rule, active = well fitted inhibition curve with a large enough effect; inconclusive = small, poorly fitted or top-dose-only effect, or another doubt; inactive = no such curve, though single readings can be large or run the other way. No potency is given beside an inconclusive call; the fits are too rough.
Assay: qHTS Assay for Inhibitors of Hepatitis C Virus (HCV)
Conditions: Huh7.5.1 HCVcc-Cre (HCVcc is cell-culture hepatitis C virus) infection, luciferase reporter, 44 h; activity change, negative = inhibition: at 41.8 µM (top of the series) unless noted
In short: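 Cells seeded at 1,000/well and cultured 4 h, then compounds added followed by HCVcc-Cre virus (~0.5 moi). After 44 h further culture, luciferase substrate was added, plates held 15 min at room temperature, and luminescence read for 15 sec.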
% is scaled to controls: 0 for no effect and ±100 for the full control effect; potency is read from the fitted curve at half-maximal effect; tags tell the direction and shape of the fitted curve.

| SMILES | Potency | activity change, negative = inhibition |
| --- | --- | --- |
| C[C@@H]1CC=C[C@H]2[C@H]1C(=O)N(Cc1ccccc1)[C@H]2c1ccc2ccccc2c1Br | inconclusive [inhibitor, single point] | – |
| CCOC(=O)c1c(NC(=O)C2CCCN(S(=O)(=O)c3ccc(C)cc3)C2)sc2c1CCCC2 (configuration not stated) | – | inactive: 4.42% |
| Cc1nn(Cc2c(Cl)cccc2Cl)c(C)c1NC(=O)Cn1nc([N+](=O)[O-])c(Cl)c1C | inconclusive [inhibitor, full curve, poor fit] | – |
| Cc1ccccc1C(=O)Oc1cccc(Nc2ncnc3ccccc23)c1 | inconclusive [inhibitor, partial curve] | – |
| CCN(CC)S(=O)(=O)c1ccc(Cl)c(NC(=S)NC(=O)C2CCCC2)c1 | active: 3.98 µM | – |
| CCCn1c(NC(=O)c2ccccc2)nc2ccccc21 | inconclusive [inhibitor, full curve, poor fit] | – |
| N=C1C(c2nc3ccccc3s2)=C(O)CN1C1CCCCC1 | – | inactive: 10.4% |
| Cc1cc(C)cc(Nc2ccc3nonc3c2[N+](=O)[O-])c1 | inconclusive [inhibitor, single point] | – |
| CCOc1cc(NS(=O)(=O)CC)c(OCC)cc1NC(=O)c1ccco1 | inconclusive [inhibitor, partial curve, poor fit] | – |
| CCC(C)Nc1nc(N)c([N+](=O)[O-])c(Nc2cc(OC)ccc2OC)n1 (configuration not stated) | inconclusive [inhibitor, partial curve, poor fit] | – |
| COc1ccc(N2C(=O)CC(Sc3nc(C)c4c(n3)CCCC4)C2=O)cc1 (configuration not stated) | inconclusive [inhibitor, partial curve] | – |
| CC(C)/C=C1\CCc2c([nH]c3ccccc23)C1=O | – | inactive: 3.45% |
| CCOC(=O)Nc1cccc(OCC(=O)Nc2ccccc2OCC)c1 | inconclusive [inhibitor, full curve] | – |
| Cc1ccccc1N=C(N)Nc1ccccc1C | – | inactive: 7.47% |
| O=C(Cc1cccs1)N[C@@H]1c2ccccc2CC[C@@H]1OCc1ccccc1 | – | inactive: 6.44% |
| CC(CCCN(C)C)C(Cc1ccccc1)c1ccccc1 (configuration not stated) | inconclusive [inhibitor, full curve] | – |
| O=C(COc1ccc(F)cc1Br)Nc1ccccc1N1CCOCC1 | inconclusive [inhibitor, partial curve] | – |
| COc1ccc(C2NC(=O)c3sc(=S)n(-c4ccccc4)c3N2)cc1 (configuration not stated) | – | inactive: -7.15% |
| Cc1ccccc1-c1nc(CN2CCC(C(=O)NC3CCN(Cc4ccccc4)CC3)CC2)c(C)o1 | inconclusive [inhibitor, partial curve] | – |
| CSc1ccccc1OCc1cc(C(=O)NC(C)Cc2cccc(C)n2)no1 (configuration not stated) | inconclusive [inhibitor, partial curve] | – |
| COC(=O)C1=C(C)N(Cc2ccc(OC)cc2)C(=O)C1 | – | inactive: 3.88% |
| O=C(/C=C/c1cccc(OCc2ccccc2)c1)c1cccnc1 | inconclusive [inhibitor, single point] | – |
| Cn1c(N)c(C(=O)COC(=O)c2cccs2)c(=O)n(C)c1=O | inconclusive [inhibitor, single point] | – |

| SMILES | Potency | activity change, negative = inhibition |
| --- | --- | --- |
| CCN(CC)S(=O)(=O)c1ccc(C)c(NC(=S)N2CCN(C/C=C/c3ccccc3)CC2)c1 | active: 8.91 µM | – |
| N=c1c2c(n(Cc3ccccc3)c3c1CCC3)CCC2 | inconclusive [inhibitor, single point] | – |
| COc1cc2nc(C3CC3)n(NC(=O)c3ccc(Cl)cc3)c(=O)c2cc1OC | inconclusive [inhibitor, partial curve] | – |
| C=CC[C@@H](CC(=O)N[C@H](CO)Cc1ccccc1)C(=O)N[C@H](COC(=O)[C@@H](CC=C)CC(=O)OC(C)(C)C)Cc1ccccc1 | inconclusive [inhibitor, partial curve] | – |
| COc1ccc(Br)cc1CNC(=O)CCCc1cn(C)c2ccccc12 | inconclusive [inhibitor, single point] | – |
| COc1ccc(C2Nc3ccccc3C(=O)N2Cc2ccco2)cc1COc1ccc(F)cc1 (configuration not stated) | inconclusive [inhibitor, single point] | – |
| c1ccc(-c2nccc3ccccc23)cc1 | – | inactive: 16.7% |
| COc1ccc(NC(=O)c2cc(-c3ccncc3)nc3ccc(Br)cc23)cc1OC | active: 12.6 µM | – |
| Cn1c2ccccc2c(=O)c2ccc(-c3ccc4c(c3)OCO4)cc21 | inconclusive [inhibitor, partial curve, poor fit] | – |
| CN1CCN(C(=O)c2ccc3c(=O)n(CCc4ccccc4)c(=S)[nH]c3c2)CC1 | inconclusive [inhibitor, partial curve] | – |
| CCn1cc(C(=O)NCC(C)C)c(=O)c2cc(F)c(N3CCN(C(=O)c4ccco4)CC3)cc21 | inconclusive [inhibitor, partial curve] | – |
| Cc1ccc(N=Cc2c(C)[nH]n(-c3nc4ccccc4[nH]3)c2=O)cc1 | – | inactive: 4.11% |
| CC(Sc1nc(N)cc(=O)[nH]1)C(=O)Nc1sc2c(c1C#N)CCCC2 (configuration not stated) | inconclusive [inhibitor, partial curve] | – |
| COC(=O)[C@@]1(Cc2ccc(F)cc2)[C@H]2c3cc(C(=O)N(C)C)n(Cc4nc5ccccc5[nH]4)c3C[C@H]2CN1C(=O)c1ccccc1 | inconclusive [inhibitor, single point] | – |
| O=c1[nH]cc(I)cc1I | – | inactive: 6.65% |
| O=C(CSc1nnc(-c2ccccc2F)o1)NC(=O)Cc1ccccc1 | inconclusive [inhibitor, partial curve] | – |
| COc1ccc(N2CCN(C(=O)c3cc(-c4cccs4)nc4ccccc34)CC2)cc1 | inconclusive [inhibitor, single point] | – |
| Cc1ccc(CNC(=O)COc2cc(O)c3c(c2)OC(C)(C)CC3=O)cc1 | inconclusive [inhibitor, partial curve] | – |
| Cc1ccc(NC(=S)N(CCN(C)C)C(C)c2ccco2)cc1C (configuration not stated) | – | inactive: 4.1% |
| COc1ccccc1C(CNC(=O)c1cccc(NS(=O)(=O)c2ccc(C)c(F)c2)c1)N1CCCC1 (configuration not stated) | inconclusive [inhibitor, full curve] | – |
| COc1cc(C=O)ccc1OCc1ccncc1 | – | inactive: 3.89% |
| c1ccc(Nc2nc(-c3cccnc3)cs2)nc1 | inconclusive [inhibitor, single point] | – |
| CCc1nc2ccc(C)cc2c(C(=O)Oc2cccc3cccnc23)c1C | inconclusive [inhibitor, single point] | – |

| SMILES | Potency | activity change, negative = inhibition |
| --- | --- | --- |
| C=CC[C@H](CC(=O)N(CCO)Cc1ccccc1)C(=O)N[C@H](COC(=O)[C@@H](CC=C)Cc1ccc(F)cc1)C(C)(C)C | inconclusive [inhibitor, single point] | – |
| CCOC(=O)Cn1c(-c2ccc(Cl)nc2)nc2ccccc21 | inconclusive [inhibitor, single point] | – |
| CCOc1cc(/C=N/NC(=O)c2ccccc2OCc2ccc(F)cc2)ccc1O | inconclusive [inhibitor, full curve, poor fit] | – |
| O=C(NCCc1ccccc1)c1cnn2c(C(F)F)cc(C3CC3)nc12 | inconclusive [inhibitor, partial curve] | – |
| CCC(C)n1c(SCC(=O)/C(C#N)=C(\C)N)nc2ccccc2c1=O (configuration not stated) | – | inactive: 8.78% |
| Cc1ccc(S(=O)(=O)Nc2ccc3ncccc3c2)cc1 | inconclusive [inhibitor, partial curve] | – |
| COc1ccc(/C=N/Nc2cc(C)nc(-n3nc(C)cc3C)n2)cc1 | inconclusive [inhibitor, partial curve] | – |
| O=S(=O)(/N=C(/Nc1cc(N2CCOCC2)ncn1)c1ccc(F)cc1)c1ccccc1 | inactive | – |
| O=C(CC12CC3CC(CC(C3)C1)C2)Nc1ccccc1N1CCOCC1 | inconclusive [inhibitor, single point] | – |
| Cc1cccc(OCC(=O)NNC(=O)c2cc(S(=O)(=O)N(C)C)ccc2N2CCCC2)c1 | inconclusive [inhibitor, partial curve] | – |
| C[C@H](CO)N1C[C@H](C)[C@@H](CN(C)Cc2ccc(-c3ccccc3)cc2)Oc2c(NC(=O)Cc3ccccc3)cccc2C1=O | inconclusive [inhibitor, single point] | – |
| COc1ccc(S(=O)(=O)N2CCOC2CNC(=O)C(=O)NCCc2c[nH]c3ccccc23)cc1 (configuration not stated) | inconclusive [inhibitor, single point] | – |
| CC(C)Oc1cccc(C(=O)C2CCCN(C(=O)c3cc(C(F)(F)F)[nH]n3)C2)c1 (configuration not stated) | inconclusive [inhibitor, single point] | – |
| CC(=O)/C(=N\Nc1ccccc1)Oc1ccc(Br)cc1 | – | inconclusive: -42% [inhibitor] |
| Clc1ccccc1OCCCCN1CCCC1 | inconclusive [inhibitor, partial curve] | – |
| COc1ccc(CCN(C)Cc2c(O)ccc3cc(Br)ccc23)cc1OC | – | inactive: -19.8% |
| Cc1c(C(=O)N2CCOCC2)oc2ccc(S(=O)(=O)N3CCCC3)cc12 | – | inactive: 7.26% |
| Cc1ccc2nc(/C(C#N)=C\c3ccc(OC(=O)c4cccs4)cc3)[nH]c2c1 | active: 1.78 µM | – |
| COc1ccc(CCNC2=C(Cl)C(=O)N(CCc3ccccc3)C2=O)cc1OC | active: 12.6 µM | – |
| CCCN(CCC)CCCNC(=S)Nc1ccc2nc(N3CCN(C)CC3)cc(C)c2c1 | active: 12.6 µM | – |
| CC(=O)c1cccc(-n2c(CCC(=O)O)ccc2-c2ccc(C)cc2)c1 | – | inactive: 9.42% |

Reference: PubChem BioAssay AID651820 (National Center for Advancing Translational Sciences (NCATS), 2012)
